System: Form I DNA (plasmid pGAD424; Li.DNA, Na.DNA, K.DNA)
Conditions: for relative efficiency of cleavage of Li.DNA, Na.DNA and K.DNA: pH 7.4 phosphate, 20 mM alkali metal ion
[1] = Na.DNA and Li.DNA, 37° C., four days

SMILES	relative efficiency of cleavage of Li.DNA, Na.DNA and K.DNA (in words)	further results
O=C(OCC1COCCOCCOCCOCCO1)c1ccc(CS(=O)(=O)CC#CCO)cc1 (stereo not shown) [Compound 3.2]	more potent cleavers of Na.DNA and K.DNA than Li.DNA	
O=S1(=O)CC#CCOCCOCCOCCOCCOCCOCC#CC1 [Compound 2.47]	cleaves Na.DNA and K.DNA similarly and with much greater efficiency than it cleaves Li.DNA	
O=C(OCC1COCCOCCOCCOCCO1)c1cccc(CS(=O)(=O)CC#CCO)c1 (stereo not shown) [Compound 3.1]	more potent cleavers of Na.DNA and K.DNA than Li.DNA	
O=S1(=O)CC#CCOCCOCCOCCOCCOCCOCCOCC#CC1 [Compound 2.48]	cleaves Na.DNA to a slightly greater extent than K.DNA	cleavage of Li.DNA (Li.DNA, in words): cleaved poorly
O=S1(=O)CC#CCOCCOCCOCCOCC#CC1 [Compound 2.12]	cleaves K.DNA a little more efficiently than it cleaves Li.DNA	
C1#CCc2cccc3c2-c2c(cccc2OCCOCCOCCOCCO3)CC#C/C=C\1 [Compound 5.3]		Form I DNA remaining [1]: no Form I DNA remained; extent of DNA cleavage [1]: extensive
O=S1(=O)CC#CCOCCOCCOCCOCCOCC#CC1 [Compound 2.46]	equipotent at cleaving Li.DNA and Na.DNA	cleavage of K.DNA (K.DNA, in words): efficient cleavage
